In paper PMC12136788:
The other results are listed elsewhere or left out.

T1: UNK ZnF1-3 (human, UniProt Q9C0B0 31-174)
T1 sequence: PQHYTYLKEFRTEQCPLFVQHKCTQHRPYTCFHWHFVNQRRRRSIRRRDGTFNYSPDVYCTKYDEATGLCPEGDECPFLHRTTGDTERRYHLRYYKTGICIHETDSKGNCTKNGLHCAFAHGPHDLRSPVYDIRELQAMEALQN

B1: chr10:33214929:33214930:-_ENSG00000150093_ENST00000302278|hu_hu|hu_hu_hu_mus_True|8_38 (ssRNA)
RNA: GGGAGUUCUACAGUCCGACGAUCAACAAGUUCAUUGAAAAACUCUCCUCUGUCAGUAAGACUAAGCACAUUUUUGUAGCUAAAUGGGCUGGUGCAGUUCUGUUCACUUGUACAAGGAUUUCUUAGCUUAGCUGGUGUUGUGCUCAACAGAGGAUUGAGCAUCA
B2: chr14:78183846:78183847:+_ENSG00000119705_ENST00000557342|hu_hu|hu_hu_hu_mus_False|28_68 (ssRNA)
RNA: GGGAGUUCUACAGUCCGACGAUCUCUCAGAAAUCUUUCUUCAUCAGAUGUUUGAGCUCCGUGCAAAAGUUUUGGCCUUUGAGCUUGAACGUGGAUCUAUGGGAGGGCUAUAAUAUGCAGAAAAGGUAAUUUUUUUUUUAAAGACAACAGAGGAUUGAGCAUCA
B3: chr2:232320318:232320319:-_ENSG00000115053_ENST00000322723|hu_hu|hu_hu_hu_mus_True|78_78 (ssRNA)
RNA: GGGAGUUCUACAGUCCGACGAUCACUAUUAAAGUCUACAAAACCAAACCCUUUGGAGGACCCAGUUUCCCGAUCAGUGACUAUUCUUGCACGAACAGAGCCCUCAAAUGAUUCUUUUAAGGUCUCUUCAGUGGUAUCCUCAGACAACAGAGGAUUGAGCAUCA
B4: chr8:117878989:117878990:-_ENSG00000164754_ENST00000297338|hu_hu|hu_hu_hu_mus_True|18_18 (ssRNA)
RNA: GGGAGUUCUACAGUCCGACGAUCCCAGAGGCCCUCGUUUACUGAGGACAAAAUGUGCGUAGAACAUUUUUCUUAUUUGCUAUGAAAUAAGAAGAAACCUGGAUCUCGGCGGGGAGCUUGGGCGGGCGGGUGGCCCGGGGAGGGCAACAGAGGAUUGAGCAUCA
B5: chr18:58105177:58105178:+_ENSMUSG00000024597_ENSMUST00000115366|mus_mus|FALSE|FALSE (ssRNA)
RNA: GGGAGUUCUACAGUCCGACGAUCUAACGUCUUGCUUGACCUGACUUGACUGUUUACUUAAAAAAAGAAAAAGAAAAAACUAAAACAACAACAAAAAAAUAUCUGUAAUCUACCAAAUCGUGAUCACUUUAAAAUCUGAAACACCAACAGAGGAUUGAGCAUCA
B6: chr14:22137345:22137346:+_ENSMUSG00000039197_ENSMUST00000045376|mus_mus|FALSE|FALSE (ssRNA)
RNA: GGGAGUUCUACAGUCCGACGAUCAAAGAGGAUAUCAACAUAAGGCAUGACGUCCAUCAAGGCUUCCUUGAAGAACUGGCUAAUGAACGGUGCAGACAGGUUCAAAGUGAAGACCCUGUUGUUCUCGGCAGCAUAGCGAGCCACCAACAGAGGAUUGAGCAUCA
B7: chr13:17810563:17810564:-_ENSMUSG00000041297_ENSMUST00000042365|mus_hu|FALSE|FALSE (ssRNA)
RNA: GGGAGUUCUACAGUCCGACGAUCAGCAAGCAGCUGUAACAGGGCUGCCUUCACUCCGGCAUGAGGGUCAGUUAAUGAAGAACUGGUGGUGGGUACAUGCUGGUUUUCUGUCCGAUAAUCUAGAUCUUCCUCAGUGACUGGUGGCAACAGAGGAUUGAGCAUCA
B8: 14291001_14291121_801_CDS_ENSG00000038382_ENST00000344204|human|control|control (ssRNA)
RNA: GGGAGUUCUACAGUCCGACGAUCUCCCUCCAAAUCCAGGUCCUCGAUGGGGGCCUUAAUCACCUUCUUCUUCAGCUGAGAAUGUUCCUCGAUCAUAUUCCGAGCCCCCUCUAAAUCCUGAGGCAGCUCCUUCUUAGCUAGGAUCAACAGAGGAUUGAGCAUCA
B9: chr9:95013113:95013114:-_ENSG00000196305_ENST00000443024|hu_hu|hu_hu_hu_mus_False|98_108 (ssRNA)
RNA: GGGAGUUCUACAGUCCGACGAUCCUCAGUGAGAAAAGGUGUGUAGGGGGCCAUCAGUCUGCACAGAGAAAGCAGGACACUGAACAGUGUCUCCAGAGCCAUGACACAGUCUUCCACCCCACUCUCACCCUUUAACCUCCUCCUCAACAGAGGAUUGAGCAUCA
B10: chr11:23185130:23185131:+_ENSMUSG00000020290_ENSMUST00000020538|mus_hu|motif|central (ssRNA)
RNA: GGGAGUUCUACAGUCCGACGAUCAAAUGGCAUCACUUCUCCAACCUGAACCUGAACGAAAUGCCUGCGGCAUUUUUGGGCGGUUUUAAUGAAAGUAUCACAAGCCAUAUCCUGGACUCCAUCAUGGGUCUCAUGCAUGAAUUCCAACAGAGGAUUGAGCAUCA
B11: chr1:225611761:225611762:-_ENSG00000143815_ENST00000272163|hu_mus|hu_hu_hu_mus_True|18_28 (ssRNA)
RNA: GGGAGUUCUACAGUCCGACGAUCCCAGGCCAUCGGCCUCUGACCACUUCACCCUCAACAAACUUCCUACUUGGCAUUUUCUAAAAUUAGUCUGGCCGCGCUCCGGCCGGUGACACGGACGGCUCCCGACAGUCACCAGCAGCCCAACAGAGGAUUGAGCAUCA
B12: chr7:19736620:19736621:-_ENSG00000105849_ENST00000222567|hu_hu|FALSE|FALSE (ssRNA)
RNA: GGGAGUUCUACAGUCCGACGAUCCAUUGUCUAGCACAUCUACUUGUAGACAAUUGUGAACAUCUGCCACUCUGCCAAUUCUAUAUCCCAUCAUUGUAAGUUCAGAUCAACAUAUACCACUAGCAGAAUUUAUUCAUUACCAAACAACAGAGGAUUGAGCAUCA
B13: chr5:162900210:162900211:+_ENSG00000072571_ENST00000358715|hu_mus|FALSE|FALSE (ssRNA)
RNA: GGGAGUUCUACAGUCCGACGAUCUUGGAUGUAUUCUAAGAGUUUUUCUGUUUCACAUUUUUCAUCGAUCUUUUCUUUCUCUAUUGAAACAAGCUUUCCCUCCAGCUGGACUAUUUUUCCCUUAGACUCCGUGAGGUCCUUCUGCAACAGAGGAUUGAGCAUCA
B14: 20922476_20924523_344_3pUTR_ENSG00000124422_ENST00000537526|human|control|control (ssRNA)
RNA: GGGAGUUCUACAGUCCGACGAUCGUUGAAAACUUCUCUCCAACGCCUUGCAUUUUCCAAGCUUUUCGCUGCUCCUCCUUGGCGAUUAUUUCCAUGUCUUUGUCAUAGAUGUAGUCCUGGCACAGAAAACAGUAGAUGCCUCCGCAACAGAGGAUUGAGCAUCA
B15: chr16:45382771:45382772:-_ENSMUSG00000022661_ENSMUST00000163230|mus_mus|mus_mus_mus_hu_True|1_1 (ssRNA)
RNA: GGGAGUUCUACAGUCCGACGAUCCUGGGUCAUGUUAUAAGACAAAUGGACAGGGAGGGCAUGCUUCUCAAAAAAUGUGAGCUAUUGUCUAAGACUAACAAUAUUUAUCUAGCUAUAAAAAUAAGUUAAAUGAAUAAACAUUACCAACAGAGGAUUGAGCAUCA
B16: chr8:74858975:74858976:-_ENSG00000154582_ENST00000284811|hu_mus|hu_hu_hu_mus_True|1_18 (ssRNA)
RNA: GGGAGUUCUACAGUCCGACGAUCGACCUUGUAGGUAAAAUACAUGCACACUUUUGAUAGCACAUGUGAGGGGAUCUCUCUAAAAUUGACCUCGUUGGUUUCAUUCUCAGCAAACUGACCUGGGCCACUCAACAUAGCUUUUAUCAACAGAGGAUUGAGCAUCA
B17: chr20:60962932:60962933:+_ENSG00000171858_ENST00000343986|hu_hu|FALSE|FALSE (ssRNA)
RNA: GGGAGUUCUACAGUCCGACGAUCGGAAUCAUCUGACUCACCCAUCCUACGAAUGGCCCCGCAGAUAGCAUAAGUUUUAAACUGGCCAUUAAACCUGCCUGUGACCUUGUCAACCUCGGCCACGUUCAUCUGGAUGGAUGCGUGCAACAGAGGAUUGAGCAUCA
B18: chr11:75578903:75578904:+_ENSMUSG00000020849_ENSMUST00000067664|mus_hu|FALSE|FALSE (ssRNA)
RNA: GGGAGUUCUACAGUCCGACGAUCUAGCUUCAAGUUACACAUACUGAACAAAAGAGGUUGAGCGAGCGAAGGAGGGGAGGAGUGAGGGGAAGGAGGUAGGGGGAGGGGGAAGGAGAAGAAACAAAAGAAUUGAACAGGCAUGCACAACAGAGGAUUGAGCAUCA
B19: chr8:101932682:101932683:-_ENSG00000164924_ENST00000353245|hu_hu|motif|central (ssRNA)
RNA: GGGAGUUCUACAGUCCGACGAUCAGACAUGGAAGCAGUUUUACACUGGCCCUUUUGAAGCCACAAUGUACCAAAAGUACGGUGCCAAACACUUAUAACUUGUAUAAAAAUUCCACAUCCCCAUAUUGGCCACCUCAAGAUGAACAACAGAGGAUUGAGCAUCA
B20: 120128408_120129817_729_3pUTR_ENSG00000163430_ENST00000295633|human|control|control (ssRNA)
RNA: GGGAGUUCUACAGUCCGACGAUCGUUGCUGCCUUUAGAGAACCAGCCAUCUGGAAUGAUCUCAGCUUCCAGCCACUGGAUGAUGCGACGUCGGAGCUCAUCACGGUUGGACUGAUAGCAAACAACUGGGCUGGCAGAUGGACUCAACAGAGGAUUGAGCAUCA
B21: chr19:582928:582929:+_ENSG00000172270_ENST00000353555|hu_hu|motif|central (ssRNA)
RNA: GGGAGUUCUACAGUCCGACGAUCGGGGCCGCAGGGCAGCAGCUCCCGGGCUCUCGUGAAACACUUCAGAAGGAAAAAAACCGGAGGAACAGAAUCCUGAAUGGAGAAAACCCAACUUUUUUAAAAAAGAAGGAAGUGUAUGAUCAACAGAGGAUUGAGCAUCA
B22: chrX:140365796:140365797:-_ENSMUSG00000031285_ENSMUST00000033642|mus_mus|mus_mus_mus_hu_False|38_48 (ssRNA)
RNA: GGGAGUUCUACAGUCCGACGAUCCUUCUCAUUACUCAGUGCCUGCAAGGUUCUGGUUCGGUAGAAGCUACAGUGGGCGCUGUGAGUGGGACUUGGAAGUCCAUUCAUCCGGGAGCCUCGCAUGUUCCUGGAUGUCUUAUCUCUCAACAGAGGAUUGAGCAUCA

Each binder was assayed against T1, UNK ZnF1-3 (assay: nsRBNS (natural sequence RNA bind-n-seq); RBNS binding buffer (assumed for nsRBNS): 25 mM Tris pH 7.5, 150 mM KCl, 3 mM MgCl2, 0.01% Triton X-100, 500 ug/ml BSA, 20 U/ml SUPERase-In, 4 C; UNK is unkempt and MSI1 is Musashi-1; names of the RNAs are library labels; protein concentration not given here; high values mean tight binding).
With B1 the binding signal was 0.928 enrichment R.
B2 was tested, and the binding signal was 2.4 enrichment R.
For B3, the binding signal was 0.422 enrichment R.
For B4, the binding signal was 1.26 enrichment R.
With B5 the binding signal was 3.19 enrichment R.
Binder B6 has a binding signal of 0.96 enrichment R.
B7 gave a binding signal of 2.38 enrichment R.
In the case of B8, the binding signal is reported as 0.804 enrichment R.
With B9 the binding signal was 1.34 enrichment R.
In the case of B10, the binding signal is reported as 0.838 enrichment R.
B11 gave a binding signal of 1.21 enrichment R.
B12 gave a binding signal of 1.3 enrichment R.
With B13 the binding signal was 0.307 enrichment R.
In the case of B14, the binding signal is reported as 0.624 enrichment R.
Work on B15 yielded a binding signal of 2.2 enrichment R.
In the case of B16, the binding signal is reported as 0.793 enrichment R.
B17 was tested, and the binding signal was 0.384 enrichment R.
With B18 the binding signal was 1.81 enrichment R.
B19 showed a binding signal of 1.46 enrichment R.
B20 was tested, and the binding signal was 0.762 enrichment R.
B21 gave a binding signal of 1.87 enrichment R.
With B22 the binding signal was 0.5 enrichment R.
